Over roughly 33,000 sequences, “E-score (-0.5 to 0.5)” has its median near -0.056; the highest 2% begin near 0.38. The list shows a part of the results.
Target: Stb4 (UniProt P50104)
Assay: PBM E-score (8-mer binding enrichment) (E-score (-0.5 to 0.5)); higher = stronger / more preferred TF binding; most listed sequences are background and not binding sites
Conditions: protein concentration: 200 nM; construct: GST-DNA-binding domain
In short: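 Full-length yeast transcription factors or their DNA-binding domains, GST-tagged and expressed with PURExpress, were applied at about 100-200 nM to universal all-10-mer Agilent arrays. These arrays had been made double-stranded by primer extension on fresh or once-stripped slides. Detection used fluorescent anti-GST, normalisation used masliner, and E-scores for ungapped eight-base words pooled with reverse complements came from the Universal PBM Analysis Suite.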

Sequence	PBM E-score
AAGTCTAG	0.00294
ACCATGAC	-0.0558
ATTTGACC	-0.0772
ACACAGTA	-0.256
AAGACAAC	0.0208
GCAAGGAC	0.0354
GCACCTGA	-0.329
GCGGAAAA	0.332
CTGATATC	0.136
AATCTAAA	0.0391
AGATGAGA	-0.103
ACCCTGAT	-0.0752
ACAGAACT	-0.0427
AACGATGG	-0.0969
CTTCGTGA	-0.177
ATGGGTGC	-0.114
AGGAGTCC	-0.07
AAACACTC	-0.0121
AGGATCTC	-0.0651
AGCACACA	-0.273
CTGCACAA	-0.153
CAACCGAC	0.215
GACTGTTA	-0.157
TCTGCACA	-0.123
AAGCAGGC	-0.164

Sequence	PBM E-score
CTGTTCCA	-0.252
TCGGCACA	0.441
GACGGCCC	0.0144
ACCCGGCT	0.36
ATCATCCG	0.414
CCGAGTTA	0.34
CATCCTTA	-0.169
AGAAGGGG	-0.169
CCGCCTCA	0.0771
CCTGCGCG	0.0544
CTCTTGGA	-0.105
CCAGGGAG	-0.353
ATTGACTA	-0.123
GGCCGTCA	0.00318
GAAATCTC	-0.00294
ACGCTCTG	-0.323
CCACCATA	0.0403
ATTTGATG	-0.0886
GTCTCCCA	-0.148
ACGTTAAC	-0.137
CGAAGATA	0.282
ACATTCAC	-0.0148
AATCATGA	-0.211
CCTGCTCC	0.0776
AGTTTGGC	-0.0624

Sequence	PBM E-score
TCAAGACA	0.0169
CCAAGTCA	-0.11
AATAAAAG	-0.11
AAAAACTT	-0.0512
ACCAGATG	-0.152
CCAGACCC	0.0209
CAGATTCG	0.139
CGGGCCCC	0.119
AGGCGCCA	-0.153
GGTGACAC	0.0509
CCGAGGGA	0.386
GGGACTCA	-0.149
TCGCACGA	-0.207
CACACGGG	0.145
AAGCAAAA	-0.181
GCTTCATA	-0.0562
CTGTGGGA	-0.145
CAAATACA	0.00604
GCGATAGC	-0.131
TAGAGAAA	-0.0274
CTAATTTC	0.0943
CAAACAGG	-0.09
CAGCGGGC	0.0491
CCGCCCCC	0.154
AATACAAG	-0.012

Sequence	PBM E-score
CAGCTCCA	-0.265
CTCGAAAC	-0.128
AATGGAGC	-0.222
GGTCCGAC	0.292
GGGTTAAA	0.146
CTTCTGTA	-0.112
CAGTTTCG	0.0607
GCGACCGA	0.126
AACTTCCC	0.0609
ATCGATCC	0.213
CATGCGCG	0.0492
ATGCTTGG	-0.187
CTACGAGA	-0.138
ATTTTTCA	0.0861
AGAAGAGA	-0.162
AAGAAGTC	-0.0434
CCTCCCCG	0.231
TAACCGCA	0.154
CGATCAAA	0.0532
AGGAATTA	0.0103
ATTTCCTC	0.0855
CATAGCGG	-0.0151
AACTCGTA	-0.0926
CGCTCTGC	-0.0501
AAGTTTGC	-0.0647

Sequence	PBM E-score
CGAGAAAG	0.107
CGAGCAGA	0.161
GCCGCGGC	0.354
AACGCACA	-0.119
ATCATGGA	-0.246
TAGGAACA	-0.118
GTTCCCCA	-0.244
AACGCGTT	-0.0196
GATGTGAA	-0.0208
AAACTTCC	0.269
GATATACC	0.155
AGATATCA	-0.138
TGGTATAA	-0.0678
GAACTTCC	0.22
CATAGCGC	0.00119
CATAACGC	-0.121
TAAGCTCA	-0.203
AAGCTCAG	-0.346
AAACGAAA	0.0721
CGTTTGAG	-0.109
CCACACGA	-0.223
GAAGCAAC	-0.0339
CGCGGTGA	-0.146
ACCCTTAT	-0.222
CCCCCGGA	0.176

Sequence	PBM E-score
AATCGCGC	-0.0862
AAAATTCG	0.0918
CCATTCCA	-0.00328
AGGAGGGC	-0.187
CTGGGAGC	-0.132
CGGAGACA	0.209
CCATACCC	0.223
GGCACCGA	0.18
CTGTGGGC	-0.0997
AAAACATC	-0.036
CAACAGAG	-0.00805
AACGCGTC	0.0116
GCGAAATA	0.0947
ACCGCATC	0.239
CGCGATTC	0.143
AGATCACC	-0.0177
AGTACAGA	-0.122
TACCGGGA	0.307
AACATTAA	-0.0786
ACACTCGT	-0.315
CTCATCTA	-0.116
CGAATCAG	-0.0679
AGCTCACC	-0.0311
AGTCCGAG	0.371
ACAACCAT	0.0286

Sequence	PBM E-score
AGCACTGG	-0.166
TACTACTA	0.207
CCACTGAG	-0.217
GATCCAAA	-0.0151
AATGTCCA	-0.253
CAAATTCA	-0.118
ACACCACT	0.0986
CCACCCGC	0.194
AACAAGCT	-0.133
GTTTGGGA	-0.215
GTAATTGA	0.00856
GACCGGGA	0.301
CTAGCTAC	-0.189
ATGGCAAT	-0.0777
GATTTACC	0.261
AAGAGGAG	0.0222
ATACCTAG	-0.119
GAGTTATC	0.196
CACCTTTA	-0.00588
AGTGTGTA	-0.127
CATCCCAC	0.0386
GATTCAAA	-0.0702

From the supplement of paper PMC3334620
